The target of assay [1] is T1, human CD200R1 (Homo sapiens, UniProt Q8TD46).
T1 sequence (Q8TD46 25-348): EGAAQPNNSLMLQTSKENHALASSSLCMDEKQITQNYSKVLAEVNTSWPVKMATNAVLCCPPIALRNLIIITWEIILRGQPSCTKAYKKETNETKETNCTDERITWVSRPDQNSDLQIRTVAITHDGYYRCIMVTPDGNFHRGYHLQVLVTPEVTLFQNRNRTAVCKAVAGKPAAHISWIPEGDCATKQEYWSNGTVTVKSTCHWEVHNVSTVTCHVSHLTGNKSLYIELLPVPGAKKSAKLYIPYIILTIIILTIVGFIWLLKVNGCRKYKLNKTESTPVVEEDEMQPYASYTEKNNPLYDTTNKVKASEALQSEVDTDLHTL
Put plainly: ELISA binding to human CD200R1. The settings on record: Example 14. As to the method: 96-well plates were coated with human CD200R1 (R&D systems, 3414-CD) and mouse CD200R1 protein (R&D systems, 2554-CD) at a concentration of 2 μg/mL at 4° C. for 16 hours and then were blocked with 3% skim milk. The result was treated with the antibodies at concentrations of 300 nM, 60 nM, 12 nM, 2.4 nM, 0.48 nM, 0.096 nM, and 0.0192 nM, and reacted at room temperature for 2 hours.
The result was washed with PBST and distilled water, the samples were bound with a goat-derived HRP-conjugated anti-human antibody (Invitrogen, 31482, Goat anti-Human IgG F(ab′)2 Secondary Antibody, HRP) for 1 hour at room temperature, and then washed again with PBST and distilled water. Color was developed with a TMB substrate solution (Thermo Scientific, 34029, 1-Step™ TMB-ELISA Ultra Substrate Solution). The color reaction was stopped with stop solution (Invitrogen, SS04, ELISA Stop Solution). The absorbance was measured at an optical density of 450 nm.

For another assay, the system named is monkey CD200R1. Put plainly: ELISA binding to monkey CD200R1. The settings on record: Example 14. The source says: Therefore, the LC D51 and LC D92 sequences were not substituted during the optimization process. However, since LC N30 and LC N31 can play an important role in the specific binding of antibodies as paratopes, the sequences were substituted and optimized. Through rational design, LC S52 and LC S94 were substituted with K and R, respectively, to derive P001009v1, and LC S52 and LC D93 were substituted with K and R, respectively, to derive P001009v2. Further, P001009v3, in which LC N30 was substituted with S, and P001009v4, in which LC N31 was substituted with K, were derived and produced, and the binding ability to human, mouse, and monkey CD200R1 was analyzed by ELISA (FIG. 15). […] Both […] and variants thereof had very weak binding ability to mouse CD200R1 at concentrations up to 300 nM.
In general terms: In an ELISA, binding on a coated surface is turned into a signal by an enzyme label.

In assay [2] the target is T1, human CD200R1. In words: SPR binding kinetics, human CD200R1. The conditions noted are these: hCD200R1-his captured on anti-His CM5 chip, 1:1 Langmuir fit. The protocol: (§1) The CD200R1-specific binding ability of the antibodies (P001009 wt, P001009 v1, P001009 v2, P001009 v3, P001009 v4) selected in Example 14 was analyzed using surface plasma resonance (SPR). For the experiment, 30 μg/mL of an anti-histidine antibody was conjugated to a CM5 biacore chip via an amine bond while allowing to flow at 10 μl/min (10,000 RU). Then, 0.25 μg/mL of human or cynomolgus CD200R1 with dual His-tags was captured onto the completed chip for 60 seconds, and the binding ability of each antibody was analyzed. All experiments were performed by association of antibodies for 120 seconds and dissociation of antibodies for 600 seconds. The resulting graphs were fitted using a 1:1 Langmuir binding kinetic model (FIG. 16), and the kinetics of each antibody were calculated.
On the technique in general: Surface plasmon resonance follows binding to a sensor surface in real time, without labels.

In a further assay the test system is cynomolgus CD200R1. Put plainly: SPR binding kinetics, cynomolgus CD200R1. The settings on record: cynomolgus CD200R1-his captured on anti-His CM5 chip, 1:1 Langmuir fit. As to the method:
as §1

B1: P001009v3: P001009 variant, LC N30 substituted with S; VH SEQ ID NO: 79 (antibody, V domains shown)
VH: EVQLLESGGGLVQPGGSLRLSCAASGFTFSSYDMSWVRQAPGKGLEWVSWISHGGGSIYYADSVKGRFTISRDNSKNTLYLQMNSLRAEDTAVYYCARDAPAYSAPLFDYWGQGTLVTVSS
VL: QSVLTQPPSASGTPGQRVTISCSGSSSNIGSNAVNWYQQLPGTAPKLLIYYDSNRPSGVPDRFSGSKSGTSASLAISGLRSEDEADYYCAAWDDSLSGYVFGGGTKLTVL
On to B1, for which the “binding ability to human CD200R1 compared to parent” value with human CD200R1 [1] is reported as “reduced”. In the assay with monkey CD200R1, the “binding ability to monkey CD200R1 compared to parent” value was “improved”. The figures for the Ka in the assay with human CD200R1 [2] and with cynomolgus CD200R1 were 4.16e+06 M⁻¹ s⁻¹ and 6.14e+09 M⁻¹ s⁻¹, respectively.

The values are drawn from US20260263521A1, “ANTI-CD200R1 ANTIBODY AND USE THEREOF” (AIMED BIO INC., priority 2023, published 2026).
